Where a name gives a salt, the structure may show the parent alone. ± gives the standard deviation of the averaged measurements. The list shows a part of the results.
Experiments:
Details in all cases: priming compound concentration 100 µM
hAMSC donor 1 [1] = experiment: Hoechst total cell count ratio vs vehicle control; higher = more cells (less toxicity)
hAMSC donor 2 [2] = experiment: as above
hAMSC donor 1 [3] = experiment: transgenic luciferase activity (RLU/mg protein) fold change vs vehicle control (ratio); higher = more transgene expression
hAMSC donor 2 [4] = experiment: as above
hAMSC donor 1 [5] = experiment: transfection efficiency (EGFP+ cells / Hoechst count) fold change vs vehicle control (ratio); hAMSC are human adipose-derived mesenchymal stem cells given an EGFP-luciferase plasmid by lipofection; higher = enhanced transfection
hAMSC donor 2 [6] = experiment: as above
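For Hoechst total cell count ratio vs vehicle control in this document: compound added 30 min before Lipofectamine 3000 lipoplex delivery, triplicate-well means expressed against DMSO vehicle control wells of the same 96-well plate.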
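For transfection efficiency (EGFP+ cells / Hoechst count) fold change vs vehicle control in this document: compounds added 30 min before Lipofectamine 3000 lipoplex transfection, triplicate means relative to DMSO vehicle wells on the same plate, luciferase RLU normalized to BCA total protein.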
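For transgenic luciferase activity (RLU/mg protein) fold change vs vehicle control in this document: compounds in DMSO added 30 min before Lipofectamine 3000 transfection of pEGFP-Luc in 96-well plates, values are means of triplicate wells over DMSO vehicle wells on the same plate.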

Structure (SMILES)	Hoechst total cell count ratio (hAMSC donor 1 [1])	Hoechst total cell count ratio (hAMSC donor 2 [2])	transgenic luciferase activity (hAMSC donor 1 [3])	transgenic luciferase activity (hAMSC donor 2 [4])	transfection efficiency (hAMSC donor 1 [5])	transfection efficiency (hAMSC donor 2 [6])
O=C1[C@H]2CCCC[C@H]2C(=O)N1CCCCN1CCN(c2nsc3ccccc23)CC1 [Perospirone hydrochloride]	0.843 ± 0.083	0.515 ± 0.04	4.5 ± 2.6	2.38 ± 0.25	1.94 ± 0.1	2.8 ± 0.32
O=C(NCC1CCCCN1)c1cc(OCC(F)(F)F)ccc1OCC(F)(F)F (centres undefined) [Flecainide hydrochloride]	1.65 ± 0.18	1.06 ± 0.057	0.709 ± 0.24	0.548 ± 0.031	0.75 ± 0.23	0.79 ± 0.053
CN(C)CCCN1c2ccccc2CCc2ccc(Cl)cc21 [Clomipramine hydrochloride]	0.217 ± 0.087	0.0403 ± 0.041	0.000622 ± 0.00047	0.008 ± 0.0095	0.225 ± 0.11	0.384 ± 0.67
CCC(=O)O[C@]1(C(=O)CCl)[C@@H](C)C[C@H]2[C@@H]3CCC4=CC(=O)C=C[C@]4(C)[C@@]3(F)[C@@H](O)C[C@@]21C [Clobetasol propionate]	1.19 ± 0.21	1.15 ± 0.098	4.2 ± 2	0.783 ± 0.14	0.966 ± 0.2	1.17 ± 0.15
C#C[C@]1(OC(C)=O)CC[C@H]2[C@@H]3CCC4=CC(=O)CC[C@@H]4[C@H]3CC[C@@]21C [19-Norethindrone acetate]	1.34 ± 0.04	1.38 ± 0.14	1.26 ± 0.42	0.671 ± 0.1	0.578 ± 0.23	0.713 ± 0.19
C=CCc1ccc(O)c(-c2ccc(O)c(CC=C)c2)c1 [Honokiol]	0.297 ± 0.27	0.126 ± 0.046	0.00216 ± 0.00092	0.00054 ± 6.2e-05	0.21 ± 0.11	0.0305 ± 0.053
COC(=O)C1=C(C)NC(C)=C(C(=O)OC(C)C)C1c1cccc2nonc12 (centres undefined) [Isradipine]	1.46 ± 0.18	1.02 ± 0.08	1.91 ± 0.66	2.15 ± 0.61	1.2 ± 0.098	1.56 ± 0.2
CN1C2CCCC1CC(NC(=O)c1nn(C)c3ccccc13)C2 (centres undefined) [Granisetron hydrochloride]	1.88 ± 0.33	1.16 ± 0.093	1.04 ± 0.26	0.756 ± 0.093	0.8 ± 0.21	0.828 ± 0.068
O=C1c2cccc3c2[C@H](CCC3)CN1[C@@H]1CN2CCC1CC2 [Palonosetron hydrochloride]	1.43 ± 0.1	1.84 ± 0.2	0.593 ± 0.35	0.937 ± 0.26	0.96 ± 0.12	0.883 ± 0.1
CCN1CCC[C@H]1CNC(=O)c1c(O)c(Cl)cc(Cl)c1OC [Raclopride]	1.32 ± 0.051	0.9893 ± 0.0093	0.857 ± 0.71	0.673 ± 0.26	0.765 ± 0.11	0.879 ± 0.14
OC(c1cc(C(F)(F)F)nc2c(C(F)(F)F)cccc12)C1CCCCN1 (centres undefined) [Mefloquine hydrochloride]	0.126 ± 0.022	0.0487 ± 0.006	0.00571 ± 0.0014	0.000141 ± 4.3e-05	0.157 ± 0.026	0.123 ± 0.21
CS(=O)(=O)c1ccc(C2=C(c3ccccc3)C(=O)OC2)cc1 [Rofecoxib]	1.24 ± 0.15	1.23 ± 0.099	0.469 ± 0.1	0.956 ± 0.066	0.997 ± 0.57	1.05 ± 0.033
NS(=O)(=O)c1cc(C2(O)NC(=O)c3ccccc32)ccc1Cl (centres undefined) [Chlorthalidone]	1.42 ± 0.074	0.974 ± 0.18	1.44 ± 0.8	0.82 ± 0.17	0.841 ± 0.21	1.49 ± 0.18
CC(=O)OCC(=O)NCCCOc1cccc(CN2CCCCC2)c1 [Roxatidine acetate hydrochloride]	1.87 ± 0.34	1.05 ± 0.06	1.49 ± 0.97	1.26 ± 0.19	0.585 ± 0.056	0.962 ± 0.11
Brc1c(NC2=NCCN2)ccc2nccnc12 [Brimonidine]	0.869 ± 0.21	1.2 ± 0.093	8.51 ± 12	1.48 ± 0.36	1.14 ± 0.21	1.23 ± 0.22
O=C(O)Cc1ccccc1Nc1c(Cl)cccc1Cl [Diclofenac sodium]	0.896 ± 0.055	1.05 ± 0.097	1.43 ± 0.51	1.38 ± 0.35	1.09 ± 0.41	1.13 ± 0.14
CC1=C(C/C=C(\C)CCC[C@H](C)CCC[C@H](C)CCCC(C)C)C(=O)c2ccccc2C1=O [Phylloquinone]	1.38 ± 0.18	1.51 ± 0.094	0.716 ± 0.51	0.749 ± 0.24	0.64 ± 0.14	0.544 ± 0.1
CC(C)(C)NCC(O)c1cc(O)cc(O)c1 (centres undefined) [Terbutaline sulfate]	1.08 ± 0.11	1.61 ± 0.1	0.436 ± 0.49	0.807 ± 0.13	0.984 ± 0.31	0.885 ± 0.12
OCCOCCN1CCN(C2=Nc3ccccc3Sc3ccccc32)CC1 [Quetiapine fumarate]	1.21 ± 0.092	1.08 ± 0.17	0.506 ± 0.072	1.21 ± 0.27	1.22 ± 0.3	1.08 ± 0.13
Nc1nc(=O)[nH]cc1F [Flucytosine]	1.48 ± 0.12	1.29 ± 0.29	1.32 ± 0.69	0.782 ± 0.15	0.774 ± 0.11	1.08 ± 0.23
Cc1nc2ccccn2c(=O)c1CCN1CCC(C(=O)c2ccc(F)cc2)CC1 [Pirenperone]	1.44 ± 0.17	1.16 ± 0.14	0.353 ± 0.15	0.551 ± 0.26	0.912 ± 0.033	0.872 ± 0.14
CN(C)CCOC(C)(c1ccccc1)c1ccccn1 (centres undefined) [Doxylamine succinate]	1.26 ± 0.12	0.9 ± 0.29	0.964 ± 0.17	1.09 ± 0.32	0.852 ± 0.15	1.18 ± 0.053
CC1(C)O[C@@H]2C[C@H]3[C@@H]4CCC5=CC(=O)C=C[C@]5(C)[C@@]4(F)[C@@H](O)C[C@]3(C)[C@]2(C(=O)CO)O1 [Triamcinolone acetonide]	1.42 ± 0.17	1.28 ± 0.17	20.7 ± 2.3	4.28 ± 0.18	1.83 ± 0.45	2.23 ± 0.51
C[C@@H](O)[C@H]1C(=O)N2C(C(=O)O)=C(S[C@@H]3CN[C@H](C(=O)N(C)C)C3)[C@H](C)[C@H]12 [Meropenem]	1.36 ± 0.27	1.26 ± 0.044	1.71 ± 0.81	0.775 ± 0.026	1.16 ± 0.19	0.637 ± 0.15
